Laboratory results taken from PMC4336329 (PLoS ONE, 2015).
Hit rate of the full screen: of about 310,000 compounds, about 2,200 (0.71%) showed an effect of 50% or more. The effect is printed as a negative number. Some of the results follow.

target: human ether-à-go-go-related gene (hERG) potassium channel (human, UniProt Q12809); experiment: primary screen, population patch clamp on CHO cells stably expressing hERG
Sequence (Q12809 whole entry, looked up): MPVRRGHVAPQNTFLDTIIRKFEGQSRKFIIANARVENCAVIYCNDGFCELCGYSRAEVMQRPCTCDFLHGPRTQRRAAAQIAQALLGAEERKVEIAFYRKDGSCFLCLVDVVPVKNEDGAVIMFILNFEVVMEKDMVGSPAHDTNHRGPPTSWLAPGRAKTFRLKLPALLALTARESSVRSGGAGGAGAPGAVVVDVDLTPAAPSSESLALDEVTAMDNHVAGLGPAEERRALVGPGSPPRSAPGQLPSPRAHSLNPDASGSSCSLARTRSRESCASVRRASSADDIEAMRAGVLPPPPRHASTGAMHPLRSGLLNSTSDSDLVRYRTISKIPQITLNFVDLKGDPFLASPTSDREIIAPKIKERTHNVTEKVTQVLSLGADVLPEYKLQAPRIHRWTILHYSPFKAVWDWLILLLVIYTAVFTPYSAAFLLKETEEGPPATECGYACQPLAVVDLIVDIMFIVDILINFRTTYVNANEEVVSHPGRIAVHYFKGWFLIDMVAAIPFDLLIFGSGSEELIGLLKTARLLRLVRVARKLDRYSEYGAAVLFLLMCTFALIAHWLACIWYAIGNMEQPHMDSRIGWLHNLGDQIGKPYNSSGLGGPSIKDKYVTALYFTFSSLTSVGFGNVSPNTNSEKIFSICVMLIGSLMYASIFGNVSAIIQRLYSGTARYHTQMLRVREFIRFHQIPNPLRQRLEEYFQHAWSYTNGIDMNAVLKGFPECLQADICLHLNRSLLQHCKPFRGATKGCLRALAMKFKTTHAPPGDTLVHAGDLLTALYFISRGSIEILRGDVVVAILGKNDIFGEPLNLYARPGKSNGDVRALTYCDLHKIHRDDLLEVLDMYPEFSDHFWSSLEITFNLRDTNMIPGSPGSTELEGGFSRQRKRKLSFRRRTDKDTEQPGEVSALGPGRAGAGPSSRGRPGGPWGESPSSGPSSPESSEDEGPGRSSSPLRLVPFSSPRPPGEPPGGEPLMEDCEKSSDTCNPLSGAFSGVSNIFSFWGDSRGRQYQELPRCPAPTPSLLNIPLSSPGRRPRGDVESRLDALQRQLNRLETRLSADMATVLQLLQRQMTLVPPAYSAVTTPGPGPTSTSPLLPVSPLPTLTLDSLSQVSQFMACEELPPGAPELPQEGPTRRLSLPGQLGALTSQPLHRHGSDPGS

Row | Compound | hERG current change (%, negative = inhibition) at 1uM [%]
1 | COCCCNC(=O)C1CCN(S(=O)(=O)c2ccc3nc4c(c(C(=O)O)c3c2)CCCCC4)CC1 | 23.7
2 | CCN(Cc1ccccc1)C(=O)CCc1nc(-c2ccc(C)cc2)no1 | -0.651
3 | O=C(NC(=O)c1ccccc1)OCC1CCCN2CCCCC12 (stereo not drawn) | -34.3
4 | Cc1nnsc1S(=O)c1ccccc1Cl (stereo not drawn) | 13.5
5 | CC(C)(C)OC(=O)NC(Cc1ccccc1)C(=O)O (stereo not drawn) | -30.6
6 | CCc1cccc(NC(=O)CCS(=O)(=O)c2cccc3nonc23)c1 | 5.12
7 | CCOc1ccccc1-n1c(SCC(N)=O)nnc1-c1cccnc1 | 1.95
8 | CC(C)Oc1ccc(N2CC(C(=O)Nc3ccc(N4CCOCC4)cc3)CC2=O)cc1 (stereo not drawn) | 24.6
9 | Cc1ccc(N(C)S(=O)(=O)c2cccc(C(=O)NCC(c3ccco3)N3CCCC3)c2)cc1 (stereo not drawn) | -11.3
10 | O=S(=O)(Nc1nnc(C2CC2)s1)c1ccccc1 | 10.6
11 | C=CCOc1c(CNc2ccc(S(N)(=O)=O)cc2)cccc1OC | 12.6
12 | O=C(Nc1cccc(Oc2c(F)c(F)c(F)c(F)c2F)c1)N1C[C@@H]2C[C@@H](C1)c1cccc(=O)n1C2 | 3.4
13 | Cc1ccc(N2C(=O)NC(=O)/C(=C\c3cc(C)n(-c4sc5c(c4C#N)CCCC5)c3C)C2=O)cc1 | -3.1
14 | CN1CCN(S(=O)(=O)c2ccc(NC(=O)c3ccccc3F)cc2)CC1 | 9.99
15 | COc1ccc2cc(C(=O)N/N=C/c3cc(OC)c(OC)c(OC)c3)[nH]c2c1 | 12.3
16 | CCOC(=O)N1CCN(CC(=O)Nc2ccc(OC)cc2)CC1 | 9.1
17 | O=[N+]([O-])c1ccc(-c2nn(-c3ccccc3)cc2/C=N/n2c(-c3ccncc3)n[nH]c2=S)cc1 | 13.5
18 | CCCc1cc(=O)[nH]c(Nc2ccc(Cl)cc2)n1 | 2.78
19 | COc1ccc(/C=N/NC(=O)c2ccc(Br)o2)cc1Cn1cc([N+](=O)[O-])cn1 | -0.0386
20 | Cc1cc(C)c(NC(=S)N(CCN(C)C)Cc2cccs2)c(C)c1 | 13.7
21 | CC(C)CCNC(=O)c1onc(CSc2ccc(F)c(F)c2)c1C(=O)NCCC(C)C | 13.9
22 | COc1ccc(OC)c(-n2nnnc2SCC(=O)Nc2ccc3c(c2)OCCO3)c1 | 12.6
23 | O=C(Nc1nnc(-c2ccc3c(c2)CCCC3)o1)c1c(F)cccc1F | 9.88

Row | Compound | hERG current change (%, negative = inhibition) at 1uM [%]
24 | Nc1nc2ccc(C(=O)NC3CCCCC3)cc2s1 | 6.38
25 | CC(=O)Nc1cccc(C(=O)OCC(=O)c2ccc3c(c2)OCO3)c1 | 14.8
26 | CCC(C(=O)Nc1ncc(C)s1)c1ccccc1 (stereo not drawn) | 21
27 | CCOc1ccc(N(C)S(=O)(=O)c2ccc(C)c(C(=O)NCc3cccs3)c2)cc1 | 5.63
28 | CCCNS(=O)(=O)c1ccc(CCC(=O)N2CCN(CC)CC2)cc1 | 6.58
29 | Cc1ccccc1-n1nc2c(c1NC(=O)C(C)C)CS(=O)(=O)C2 | 22.8
30 | O=C(CCc1c[nH]c2ccccc12)Nc1ccc(S(=O)(=O)Nc2ncccn2)cc1 | 5.97
31 | COc1ccc(C2=NS(=O)(=O)N(C)C(C(=O)NC3CCCCC3)=C2)cc1OC | -6.46
32 | O=C(COc1ccc(Cl)cc1Cl)NC(=O)N1CCCCC1 | 3.66
33 | COc1ccc(C(=S)Nc2ccc(N(C)C)cc2)cc1 | 12.9
34 | CCOC(=O)N1CCC(=NNC(=O)COc2cccc(C)c2)CC1 | 13.5
35 | COc1ccc(CCNC(=O)c2cc3c(=O)n(C)c4ccccc4c3n2C)c(OC)c1 | 5.04
36 | CC(Oc1ccc(Br)cc1Cl)C(=O)Nc1ccncc1 (stereo not drawn) | 8.85
37 | COCC(=O)Nc1c(C(=O)Nc2cccc(OC)c2)oc2ccccc12 | 15.8
38 | CSc1ccc(CN(C)CC(=O)Nc2ccc(NC(C)=O)cc2)cc1 | 7.1
39 | Cc1[nH]c(C)c(S(=O)(=O)N2CCc3ccccc32)c1C(=O)N1CCCCC1 | 12.9
40 | O=C(OCc1nc2ccccc2s1)c1cc2ccccc2oc1=O | 9.38
41 | O=[N+]([O-])c1cc2c(c(CSc3ncccn3)c1)OCOC2 | 13.8
42 | CCCn1c(N)c(C(=O)CN(C)CC(=O)Nc2ccccc2CC)c(=O)[nH]c1=O | -3.45
43 | COCCn1c(-c2ccc(F)cc2)nc2oc3cc(OC)ccc3c(=O)c2c1=O | 1.51
44 | COc1ccc(CC(=O)Nc2ccc(C#N)c(Cl)c2)cc1S(=O)(=O)N1CCOCC1 | -18.2
45 | Cc1nnc(NC(=O)c2ccc(-c3ccc([N+](=O)[O-])cc3)o2)s1 | -8.48
46 | Cc1ccc(-n2c(SCC(N)=O)nnc2-c2ccc(S(=O)(=O)N3CCCCC3)cc2)c(C)c1 | -9.7

Row | Compound | hERG current change (%, negative = inhibition) at 1uM [%]
47 | CCOC(=O)CCCNC(=O)CN1C(=O)NC(c2ccccc2)(c2ccccc2)C1=O | -0.493
48 | O=C1C(C=NC2CC2)=C(O)c2ccccc21 | 15.9
49 | Cc1cc(C)n(-c2c(F)c(F)c(CN3CCCCC3)c(F)c2F)n1 | 8.13
50 | CCn1c(-c2ccc(Cl)cc2)n[nH]c1=S | 5.68
51 | CCOP(=O)(OCC)/C(C#N)=C(\O)c1ccc(OC)cc1 | 9.87
52 | O=C(O)CCC(=O)Nc1ccccc1C(=O)NCCc1ccccc1 | 16.3
53 | CCS(=O)(=O)c1ccc2oc(SCC(=O)NCCc3ccccc3)nc2c1 | 5.84
54 | C/C(=C\c1ccc(C)o1)C(=O)c1c(C)cc(C)[nH]c1=O | 10.6
55 | CCOc1ccc(N=Nc2c(C)noc2C)cc1 | 11.9
56 | O=C(COc1ncnc2ccccc12)c1ccc2c(c1)OCCO2 | 13.1
57 | CCC(=O)c1ccc(OCC(=O)Nc2ccccc2C(=O)N2CCCCC2)cc1 | 13.8
58 | Cc1noc(C)c1C(=O)OCC(=O)Nc1ccc(S(N)(=O)=O)cc1 | 8.34
59 | Cc1ccc(CCNC(=O)C2CCCN(S(=O)(=O)N3CC(C)CC(C)C3)C2)cc1 (stereo not drawn) | 16.3
60 | Nn1c(SCC(=O)Nc2ccc3c(c2)OCCO3)nnc1C(F)(F)F | 7.53
61 | O=C(CSc1nnc(Cn2c(=O)sc3ccccc32)n1-c1ccccc1)N1CCCCCC1 | 2.64
62 | CCOc1ccc(C(=O)OCCCN(C)C)cc1 | 1.98
63 | CSCC[C@H](NC(=O)COc1ccc(Cl)cc1Cl)c1nc2ccccc2[nH]1 | 8.49
64 | COc1ccc(N(CC(=O)Nc2ccc(S(=O)(=O)N3CCOCC3)cc2)S(=O)(=O)c2ccc(F)cc2)cc1 | 7.3
65 | O=S(=O)(c1ccc(NCC2CCCCC2)nc1)N1CCOCC1 | 4.04
66 | Cc1ccc(NC(=O)CNC2CCCCC2)cc1Cl | 9.31
67 | CC1(C)OC(=O)C(=NNc2ccc(O)cc2)C(=O)O1 | 9.56
68 | Cc1nc(NC(=O)COC(=O)CCc2nc3ccccc3s2)c(Cl)cc1Cl | 21.7
69 | CC(C)OC(=O)CSc1nnc(-c2cnccn2)n1C | 6.35

Row | Compound | hERG current change (%, negative = inhibition) at 1uM [%]
70 | CCOc1ccc2c(c1)c(N=NC(=N)N)c(O)n2C | 18.4
71 | Cc1ccc(NC2=C/C(=N\S(=O)(=O)c3cccs3)c3ccccc3C2=O)c(C)c1 | 8.24
72 | O=C(CNC(=S)N(Cc1ccccc1Cl)C1CCCC1)NCCN1CCOCC1 | 0.96
73 | O=C1CC(SC(=Nc2ccccc2)Nc2ccccc2)C(=O)N1c1cccc(Cl)c1 (stereo not drawn) | -3.44
74 | O=C(CCc1ccccc1)Nc1ccc(NC(=O)c2ccco2)nc1 | 13.1
75 | Oc1ccc(Oc2ncc(Cl)cc2Cl)cc1 | -9.7
76 | N#CC1=C(N)N(c2ccccc2C#N)C2=C(C(=O)CCC2)C1c1ccsc1 (stereo not drawn) | -2.19
77 | CC(=Nc1ccccc1)Nc1ccccc1 | 2.41
78 | CCCC1=Nc2cc(C(=O)NCCCN3CCOCC3)ccc2Sc2ccccc21 | 13.7
79 | CCOC(=O)c1c(C)[nH]c(C(=O)NNC(=O)c2ccc(C(C)(C)C)cc2)c1C | 0.192
80 | CCn1c(SCC(=O)Nc2ccc(OC)c(OC)c2)nnc1-c1cccs1 | 3.81
81 | CCOC(=O)N1CCN(c2c(NCCc3ccc(OCC)c(OCC)c3)c(=O)c2=O)CC1 | -1.38
82 | C#CCOC(=O)c1csc2nnsc12 | 1.47
83 | CCc1ccc(NC(=O)C(C)Sc2ccc(S(=O)(=O)N3CCN(C)CC3)cn2)cc1 (stereo not drawn) | -3.65
84 | O=C(NNc1ccc(Cl)cc1)C1CCC1 | 12
85 | NS(=O)(=O)c1ccc(NC(=O)CSc2ncn[nH]2)cc1 | 12.8
86 | O=C(NCCCN1CCOCC1)c1cc2c(s1)CSC2 | -3.25
87 | COc1ccc(C(=O)N2CCOC2CNC(=O)C(=O)NCCc2ccc(OC)c(OC)c2)cc1 (stereo not drawn) | 1.99
88 | CCN(CC)CCNC(=O)NC1CCCCC1 | 12.1
89 | COc1ccc2c(c1)SC1=NCCS(=O)(=O)N12 | 11.8
90 | COc1cc(NC(=O)c2ccc(Cl)cc2Cl)ccc1-c1cc2ccccc2oc1=O | -9.18
